22 molecules from article PMC12136788 can be followed below.

Residue numbers refer to the chain shown, from its start. Some of the results follow.

The chains are these.
T1: UNK ZnF1-3 (human, UniProt Q9C0B0 31-174)
T1 sequence: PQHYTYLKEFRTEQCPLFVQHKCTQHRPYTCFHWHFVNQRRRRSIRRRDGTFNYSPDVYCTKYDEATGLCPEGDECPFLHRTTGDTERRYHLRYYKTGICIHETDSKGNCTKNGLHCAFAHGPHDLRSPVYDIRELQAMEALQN

B1: chr7:149068622:149068623:-_ENSMUSG00000025139_ENSMUST00000001950|mus_hu|mus_mus_mus_hu_False|78_78 (ssRNA)
RNA: GGGAGUUCUACAGUCCGACGAUCGUGAGGCCUCUGAGUGUGGCUUGUGGUCUGUCCUGUCUGCAGUUUGUUAAUAUCACGGAACAUACCAUCUAGAACGUUCCAGUCCCGCCUGACACCUUCAUUCCCAAUGGAGAAGAAAUCCAACAGAGGAUUGAGCAUCA
B2: chr2:187370222:187370223:+_ENSG00000065548_ENST00000337859|hu_mus|motif|central (ssRNA)
RNA: GGGAGUUCUACAGUCCGACGAUCUUUUCCUCUUCUUCCACGCGAGAAAAGACUCUAGAGUGAUUUUGGUAACAUUUGGACCGGGGGCAGAACGCUCUCUUUCAAUUAGAUCUUCUAAUGAGAUUUCAUCUUCCUUCUCUUCUUCAACAGAGGAUUGAGCAUCA
B3: chr5:134191040:134191041:+_ENSG00000181904_ENST00000394976|hu_mus|motif|central (ssRNA)
RNA: GGGAGUUCUACAGUCCGACGAUCAAAGGCAGCAGUGCCACAGCCAUAGCCAAGAUCUGCAAGGCGGGACAGAGCUUUAAUGCGGCCUGGAGGUCUCCCUGGGCUGACUUUGUAUCCUGCAGCUUUGGUUGUACCCAAAGGUCUCAACAGAGGAUUGAGCAUCA
B4: 94592701_94592821_2157_CDS_ENSG00000166025_ENST00000433060|human|control|control (ssRNA)
RNA: GGGAGUUCUACAGUCCGACGAUCCAGGUACUUCUGCUCCCACUUUGUCAUGUCGGCCUCCAGGGCCAGGAUCCGCUCCUCCUUCUCCCGCACAAGUUCCAGGAGGGCUGGGGCAUUGUAUUCCGGCAUGUUGGCUGGCUGGCCCAACAGAGGAUUGAGCAUCA
B5: 134301280_134303707_352_3pUTR_ENSG00000028839_ENST00000237264|human|control|control (ssRNA)
RNA: GGGAGUUCUACAGUCCGACGAUCUUUCCAACAUCACGUUUAUAAAUUACAUUUGCUCCUUCCAAAGCAAUCUUCCUUAAGUUUAAAUGACAUCUUGUUCUAAAAACACAGACUACAUUUGUAAUUAGAAUGUCCAAUGCAACACAACAGAGGAUUGAGCAUCA
B6: chr5:77764768:77764769:+_ENSMUSG00000029250_ENSMUST00000031167|mus_mus|motif|central (ssRNA)
RNA: GGGAGUUCUACAGUCCGACGAUCGACUCCAAGAAUCAUUGAUGGGUGAAUCUCACAGUGGGUGUAGGUAGAACAAUAAGCGGCUUCCUUCUCCUGCAAAUCAUCUGGAGUCAUUGCAAGCAUCACGGUCUCCUCUUCCAGGGUCAACAGAGGAUUGAGCAUCA
B7: chr7:56126341:56126342:+_ENSG00000146731_ENST00000540286|hu_mus|hu_hu_hu_mus_True|18_68 (ssRNA)
RNA: GGGAGUUCUACAGUCCGACGAUCCAUGUUUCUCCUCUUGGCUCUGCGCAGAGCUACGAUCCCUUCUUUUGAAAGAGCAUCUAAGGAAAAGGGGUCAAUCCCCUUUUGAUUAAUAACAACAAAUCCUUUAUCUGAGUCACCACACAACAGAGGAUUGAGCAUCA
B8: chr1:169100823:169100824:+_ENSG00000143153_ENST00000367816|hu_hu|FALSE|FALSE (ssRNA)
RNA: GGGAGUUCUACAGUCCGACGAUCUUGUUCAAGACUAGUAGGUUUUUGUUUUUGUAUCUUUUUUUAACUUAUUAAAUGGCUAGUGGGAAAGAUUUGUGCUUGUGAUCAGCUCUUAACUUCAAUUUUUACAUCAAAACGUCCCUGCAACAGAGGAUUGAGCAUCA
B9: chr4:57314706:57314707:+_ENSG00000128050_ENST00000264221|hu_mus|hu_hu_hu_mus_True|1_48 (ssRNA)
RNA: GGGAGUUCUACAGUCCGACGAUCCAGAAUUUCAAAAAUAGCUUGUGUGGCAUGACUCAUGAUGUCCACUUCAGUCUGCCCUAUAACAAGUCCAGCAAAACAGAAUUUUGCAGCAAUGAGUUGCUCCUCAGACCACUGUGGGUCCAACAGAGGAUUGAGCAUCA
B10: 147026393_147026513_1702_CDS_ENSG00000102081_ENST00000218200|human|control|control (ssRNA)
RNA: GGGAGUUCUACAGUCCGACGAUCCCGUCCGUCUCCUCUGCGCAGGAAGCUCUCCCUCUCUUCCUCUGUUGGAGCUAAUGACCAAUCACUGAGUUCGUCUCUGUGGUCAGAUUCUGUUUCAGAAGCAUUUGAUGCUUCAGAAUUCAACAGAGGAUUGAGCAUCA
B11: chr7:56126341:56126342:+_ENSG00000146731_ENST00000540286|hu_mus|hu_hu_hu_mus_True|18_18 (ssRNA)
RNA: B7 RNA with U69C, A71C, A75G
B12: chr8:104447970:104447971:+_ENSG00000164934_ENST00000297579|hu_hu|hu_hu_hu_mus_False|1_1 (ssRNA)
RNA: GGGAGUUCUACAGUCCGACGAUCAUACACUUCCCUGCUUCGGCUCUUGUCCACAGGAAAGAUUCUAAUAGACUUAUCAAAGCUGGCAGACACAAAUUCCUUCCCAGUGGGAGAGUAGUCCACAUCAAGUACUGCAGAUACAUGCAACAGAGGAUUGAGCAUCA
B13: chr3:150289932:150289933:+_ENSG00000144895_ENST00000460851|hu_mus|motif|central (ssRNA)
RNA: GGGAGUUCUACAGUCCGACGAUCCUUGUAGUUUUUAACAUCCCAUACUUCCAUUUGUCCUCGAAGAUUUCCAAAUCCAGCCAGCACGGAUAUAUGUCCAUGAGGGCUAUAGAAGGCUGCGUUGCGAGGACCAGUCCCAAAGUCCAACAGAGGAUUGAGCAUCA
B14: 134124241_134126239_1698_CDS_ENSG00000145833_ENST00000354283|human|control|control (ssRNA)
RNA: GGGAGUUCUACAGUCCGACGAUCGGGUUCAAAACCCAUGUCAAACAUUCUGUCUGCUUCAUCUAAAACAACAUAUGUCACUCUUCGAAGAUUUGUGACCCGACCACUGUUAGCGGCUAACAUGUCAAUCAUUCGACCAGGUGUCAACAGAGGAUUGAGCAUCA
B15: chr11:77336104:77336105:-_ENSG00000074201_ENST00000525064|hu_mus|hu_hu_hu_mus_False|1_98 (ssRNA)
RNA: GGGAGUUCUACAGUCCGACGAUCCUCACACAUUGCUGUGAACAUUGCCUCCAAUGCUGACUUAUCACUGGGCACAAAUCGAAAUUCAGAAAUGGGUUCAACAUCAUCAUUGUCUUCCUCAUCUUCAUCAGAGAGAGCAGGUUCCAACAGAGGAUUGAGCAUCA
B16: chr1:74301520:74301521:+_ENSMUSG00000006304_ENSMUST00000006467|perfect_dup|FALSE|FALSE (ssRNA)
RNA: GGGAGUUCUACAGUCCGACGAUCGAAGACUACUGUGACUCUGUCCUUUUUAGACUCAACAUACAUGGUCUCAUCAUCCCUAUAAUGGAUAACUGCCCUGUUCUCUCCUUCCUUGCCCUCUUCUUGGAAUUGGAAGUAUUUUUCCAACAGAGGAUUGAGCAUCA
B17: 8533615_8533735_883_3pUTR_ENSMUSG00000047187_ENSMUST00000060232|mouse|control|control (ssRNA)
RNA: GGGAGUUCUACAGUCCGACGAUCAAUAGUUUCAUGUCUCAGCUGAGCAUGAGGAAAGAGGGUGACAGAGUGCGUGGCUCCACUGGGCAGCUAGCCGGUAACACCAGACUCAACAGCAGCCUCCCCCUGCCUGCUGUCCGCCUUCAACAGAGGAUUGAGCAUCA
B18: chr19:45035288:45035289:+_ENSMUSG00000036097_ENSMUST00000096053|mus_mus|FALSE|FALSE (ssRNA)
RNA: GGGAGUUCUACAGUCCGACGAUCAGUCUCCAGAGGAAACAAAGAUCCAAAACCAACGCCCAUGUUGAAGAAUACAGCUGCUAUAUCAGACAAAGAUGGGAUCCAGGGCCAAACUGGAGAGUCACUGAAAGUAUCAUUUCUAAUCAACAGAGGAUUGAGCAUCA
B19: 155312183_155314165_1929_CDS_ENSMUSG00000042699_ENSMUST00000042141|mouse|control|control (ssRNA)
RNA: GGGAGUUCUACAGUCCGACGAUCUAGGUUGCAAUUUGCAUCAUCAUCUUCACCACCAUCAUCCUCCUUAUCCUUCUUUUUCUUGUCCUUUGGAGGAGGAAUGAAUUGAGUCAUCUGAAUGCAGUCUUCCAGAAAAUACUCUUGCAACAGAGGAUUGAGCAUCA
B20: chr2:119558892:119558893:+_ENSMUSG00000027304_ENSMUST00000028767|mus_hu|FALSE|FALSE (ssRNA)
RNA: GGGAGUUCUACAGUCCGACGAUCAGAUUCCCAGCUCCAUGGUAAUACUGAAUGCGUGCAGAGUGGCCAAUGAACUGCGCGGUUAAAAAAACAAAAGGCAAACACAAAUCUAAAGACAUGGAUAAAGCCCAAGAGAGCCCAGGCCAACAGAGGAUUGAGCAUCA
B21: chr18:50337633:50337634:+_ENSMUSG00000024507_ENSMUST00000025385|mus_mus|FALSE|FALSE (ssRNA)
RNA: GGGAGUUCUACAGUCCGACGAUCAUACACUGGUUUGGCAAAACGAACCUUAAUCGCCUUGAAUCUUGAUACAUCAUUAUCUGCAAACUGCUGUAAAACAUGCCUUGCAGAAAAUCCAAAGGUACAUAGUCCAUGUAAUAUGGGCAACAGAGGAUUGAGCAUCA
B22: chr15:76910149:76910150:-_ENSMUSG00000033565_ENSMUST00000166610|mus_hu|FALSE|FALSE (ssRNA)
RNA: GGGAGUUCUACAGUCCGACGAUCACAAGAAAAACAAUUCAUAUCCCUUAGGGAAAAAAGAGGAUCAAUUCAUCACUCAAUAUAUAAUACAGCCAAAAUGAGCUGCCAAAACAAGCACACACACAAAUACUGUGAACAGAAAAACAACAGAGGAUUGAGCAUCA

The assay addresses T1, UNK ZnF1-3. The assay is described as follows: nsRBNS (natural sequence RNA bind-n-seq); RBNS binding buffer (assumed for nsRBNS): 25 mM Tris pH 7.5, 150 mM KCl, 3 mM MgCl2, 0.01% Triton X-100, 500 ug/ml BSA, 20 U/ml SUPERase-In, 4 C; UNK is unkempt and MSI1 is Musashi-1; names of the RNAs are library labels; protein concentration not given here; high values mean tight binding.
In the case of B1, the binding signal worked out at 0.83 enrichment R.
Take B2: the binding signal is 0.489 enrichment R.
The result for B3 reads 1.14 enrichment R.
With B4, the binding signal was 0.398 enrichment R.
Under B5 stands 0.687 enrichment R.
The result for B6 reads 1.09 enrichment R; that for B7, 1.7 enrichment R; that for B8, 1.09 enrichment R.
The result for B9 reads 0.884 enrichment R.
B10 gave a binding signal of 0.457 enrichment R.
Under B11 stands 0.944 enrichment R; under B12, 0.907 enrichment R; under B13, 1 enrichment R.
Under B14 stands 0.632 enrichment R.
The result for B15 reads 0.964 enrichment R; that for B16, 0.656 enrichment R.
For B17, the binding signal came out at 1.12 enrichment R.
In the case of B18, the binding signal is 1.84 enrichment R.
Under B19 stands 0.582 enrichment R.
For the molecule B20, the binding signal was determined as 2.82 enrichment R.
As for B21, the binding signal came to 0.767 enrichment R.
Under B22 stands 2.59 enrichment R.
